Assay results: patent US7592316B2, “Peptides as NS3-serine protease inhibitors of hepatitis C virus” (Schering Corporation, priority 2000, dated 2009)
pKi: −log10 of the molar value. *1 amine or outer side, *2 acyl side, *3 side chain or, on linkers, in order; H or OH if unused. Where a SMILES comes first, the peptide text is derived from it. [ ]: non-standard residue; d: D form. The star is where a group is joined. ξ: configuration not given here. ξβ3hAbu(2-oxo,5,5,5-F3) = O=C(C(=O)[*:2])C(CC(F)(F)F)N[*:1]; Pro(3R,4S-CMe2) = CC1(C)[C@@H]2[C@@H](C(=O)O)NC[C@@H]21; X47 = O=C(C(=O)[*:2])C(N[*:1])C1CCC1; Chg = N[C@H](C(=O)O)C1CCCCC1; Phg = N[C@H](C(=O)O)c1ccccc1; Tle = CC(C)(C)[C@H](N)C(=O)O; Boc = CC(C)(C)OC(=O)*; CO = O=C([*:1])[*:2]; NHtBu = CC(C)(C)N*

Molecular target: HCV NS3/NS4A protease (strain 1a) (Hepatitis C virus genotype 1a, UniProt P27958)
Test: biochemical
Conditions: Table 5; HCV NS3/NS4A protease, spectrophotometric assay, 30° C., pH 6.5; read-out: Ki* Range
Method: Assay for HCV Protease Inhibitory Activity:
Spectrophotometric Assay Spectrophotometric assay for the HCV serine protease was performed on the inventive compounds by following the procedure described by R. Zhang et al, Analytical Biochemistry, 270 (1999) 268-275, the disclosure of which is incorporated herein by reference. The assay based on the proteolysis of chromogenic ester substrates is suitable for the continuous monitoring of HCV NS3 protease activity. The substrates were derived from the P side of the NS5A-NS5B junction sequence (Ac-DTEDWX(Nva), where X=A or chromophoric alcohols (3- or 4-nitrophenol, 7-hydroxy-4-methyl-coumarin, or 4-phenylazophenol). Presented below are the synthesis, characterization and application of these novel spectrophotometric ester substrates to high throughput screening and detailed kinetic evaluation of HCV NS3 protease inhibitors.
Protein concentrations were determined by the Biorad dye method using recombinant HCV protease standards previously quantified by amino acid analysis. Prior to assay initiation, the enzyme storage buffer (50 mM sodium phosphate pH 8.0, 300 mM NaCl, 10% glycerol, 0.05% lauryl maltoside and 10 mM DTT) was exchanged for the assay buffer (25 mM MOPS pH 6.5, 300 mM NaCl, 10% glycerol, 0.05% lauryl maltoside, 5 μM EDTA and 5 μM DTT) utilizing a Biorad Bio-Spin P-6 prepacked column.
Protease Assay: HCV protease assays were performed at 30° C. using a 200 μl reaction mix in a 96-well microtiter plate. Assay buffer conditions (25 mM MOPS pH 6.5, 300 mM NaCl, 10% glycerol, 0.05% lauryl maltoside, 5 μM EDTA and 5 μM DTT) were optimized for the NS3/NS4A heterodimer (D. L. SalI et al, ibid.)). […] Fifty μls of prewarmed protease (12 nM, 30° C.) in assay buffer, was then used to initiate the reaction (final volume 200 μl). The plates were monitored over the length of the assay (60 minutes) for change in absorbance at the appropriate wavelength (340 nm for 3-Np and HMC, 370 nm for PAP, and 400 nm for 4-Np) using a Spectromax Plus microtiter plate reader equipped with a monochrometer (acceptable results can be obtained with plate readers that utilize cutoff filters). Proteolytic cleavage of the ester linkage between the Nva and the chromophore was monitored at the appropriate wavelength against a no enzyme blank as a control for non-enzymatic hydrolysis. The evaluation of substrate kinetic parameters was performed over a 30-fold substrate concentration range (˜6-200 μM). Initial velocities were determined using linear regression and kinetic constants were obtained by fitting the data to the Michaelis-Menten equation using non-linear regression analysis (Mac Curve Fit 1.1, K. Raner). Turnover numbers (kcat) were calculated assuming the enzyme was fully active.
The resulting data were fitted using linear regression and the resulting slope, 1/(Ki*(1+[S] o/Km), was used to calculate the Ki* value.

pKi | Compound
< 6.00 | CCCC(NC(=O)[C@@H]1[C@@H]2[C@H](CN1C(=O)[C@@H](NC(=O)NC1CC1)C(C)(C)C)C2(C)C)C(=O)C(N)=O (some centres unmarked)
6.00 to 7.00 | CCCC(NC(=O)C1C2C(CN1C(=O)[C@H](NC(=O)OC(C)(C)C)C1CCCC(C(=O)OC(C)(C)C)C1)C2(C)C)C(=O)C(N)=O (some centres unmarked)
7.00 to 9.00 | CN(C)C(=O)[C@@H](NC(=O)CNC(=O)C(=O)C(CC1CC1)NC(=O)[C@@H]1C2C(CN1C(=O)C(NC(=O)OC(C)(C)C)C1Cc3ccccc3C1)C2(Cl)Cl)c1ccccc1 (some centres unmarked)
7.00 to 9.00 | CC(C)(C)OC(=O)N[C@H](C(=O)N1C[C@@H]2[C@H]([C@H]1C(=O)NC(CC1CC1)C(=O)C(N)=O)C2(Cl)Cl)C(C)(C)C (some centres unmarked)
6.00 to 7.00 | C=CCNC(=O)C(=O)C(CCC)NC(=O)[C@@H]1[C@H]2[C@@H](CN1C(=O)[C@@H](NC(=O)OC(C)(C)C)C1CCCC1)C2(C)C (some centres unmarked)
6.00 to 7.00 | C=CCCC(NC(=O)[C@@H]1[C@H]2[C@@H](CN1C(=O)[C@@H](NC(=O)Nc1ccccc1)C1Cc3ccccc3C1)C2(C)C)C(=O)C(=O)NCC=C (some centres unmarked)
6.00 to 7.00 | C=CCNC(=O)C(=O)C(CCC)NC(=O)[C@@H]1[C@@H]2[C@H](CN1C(=O)[C@@H](NC(=O)[C@@H](OC(C)=O)c1ccccc1)C1CCCCC1)C2(C)C (some centres unmarked)
7.00 to 9.00 | CC(C)NC(=O)N[C@H](C(=O)N1CC2C([C@H]1C(=O)NC(CC1CCC1)C(=O)C(N)=O)C2(C)C)C1CCCCC1 (some centres unmarked)
< 6.00 | C=CCCC(NC(=O)[C@@H]1[C@H]2[C@@H](CN1C(=O)[C@@H](NC(=O)OC(C)(C)C)C(C)(C)C)C2(C)C)C(=O)C(=O)OCC (some centres unmarked)

Compound | pKi
CN(C)C(=O)[C@@H](NC(=O)CNC(=O)C(=O)C(CC(F)(F)F)NC(=O)[C@@H]1[C@@H]2[C@H](CN1C(=O)[C@@H](NC(=O)OC(C)(C)C)C1CCCCC1)C2(C)C)c1ccccc1 (stereo partly drawn) (Boc-[Chg][Pro(3R,4S-CMe2)][ξβ3hAbu(2-oxo,5,5,5-F3)]G[Phg]-NMe2) | 6.00 to 7.00

Same assay, conditions: Table 6; HCV NS3/NS4A protease, 30° C., pH 6.5; read-out: Ki*

pKi | Compound
7.00 to 9.00 | CC(C)(C)[C@H](NC(=O)OC1CC2CCC1C2)C(=O)N1C[C@H]2[C@@H]([C@H]1C(=O)NC(CC1CCC1)C(=O)C(N)=O)C2(Cl)Cl (some centres unmarked)
7.00 to 9.00 | CC(C)(C)OC(=O)N[C@H](C(=O)N1C[C@H]2[C@@H]([C@H]1C(=O)NC(CC1CC1(F)F)C(=O)C(N)=O)C2(C)C)C1CCCCC1 (some centres unmarked)
7.00 to 9.00 | C=CCNC(=O)C(=O)C(CCC)NC(=O)[C@@H]1[C@@H]2[C@H](CN1C(=O)[C@@H](NC(=O)O[C@H]1CCC[C@@H]1C)C1CCCCC1)C2(Cl)Cl (some centres unmarked)
7.00 to 9.00 | C=CCCC(NC(=O)[C@@H]1[C@@H]2[C@H](CN1C(=O)[C@@H](NC(=O)OC(C)(C)C)C1CCCCC1)C2(C)C)C(=O)C(=O)NCCS(=O)(=O)NCc1ccccc1 (some centres unmarked)
6.00 to 7.00 | C=CCNC(=O)C(=O)C(CC(F)(F)F)NC(=O)[C@@H]1[C@@H]2[C@H](CN1C(=O)[C@@H](NC(=O)NC(C)(C)C)C(C)(C)C)C2(C)C (some centres unmarked)
7.00 to 9.00 | C=CCNC(=O)C(=O)C(CCC(F)(F)F)NC(=O)[C@@H]1[C@@H]2[C@H](CN1C(=O)[C@@H](NC(=O)NC(C)(C)C)C1Cc3ccccc3C1)C2(C)C (some centres unmarked)
6.00 to 7.00 | CC(C)(C)OC(=O)N[C@H](C(=O)N1C[C@@H]2CCC[C@@H]2[C@H]1C(=O)NC(CC1CCC1)C(=O)C(N)=O)C1CCCCC1 (some centres unmarked)
7.00 to 9.00 | C=CCCNC(=O)C(=O)C(CCC=C)NC(=O)[C@@H]1[C@@H]2[C@H](CN1C(=O)[C@@H](NC(=O)NC(C)(C)C)C1CCCCC1)C2(C)C (some centres unmarked)
6.00 to 7.00 | C=CCNC(=O)C(=O)C(CCCC)NC(=O)[C@@H]1[C@@H]2[C@H](CN1C(=O)[C@@H](NC(=O)CC1CCCC1)C1CCCCC1)C2(C)C (some centres unmarked)

Compound | pKi
CN(C)C(=O)[C@@H](NC(=O)CNC(=O)C(=O)C(NC(=O)[C@@H]1[C@@H]2[C@H](CN1C(=O)[C@@H](NC(=O)NC(C)(C)C)C(C)(C)C)C2(C)C)C1CCC1)c1ccccc1 (stereo partly drawn) ({NHtBu-CO}-[Tle][Pro(3R,4S-CMe2)][X47]G[Phg]-NMe2) | 7.00 to 9.00
